In the supplement of paper PMC10369915:
This is one part of the list. Rule as the data show it: active = 3.2 or more and inactive = the rest. Only a few entries rise above the background.

B1: EPOR_Y489_N487S (peptide)
chain: PYSSPYENSLI
B2: ERBIN_Y1107 (peptide)
chain: GDYLSYREFHS
B3: EPHB2_Y194_R199H (peptide)
chain: AVRVFYRKCPH
B4: ERBB2IP_Y977 (peptide)
chain: YGPPQYNIQYS
B5: EPOR_Y485_P488S (peptide)
chain: LSDGPYSNSYE
B6: ERBB3_Y1199_YF (peptide)
chain: DEEFEYMNRRR
B7: EPHB2_Y912 (peptide)
chain: RTIPDYTSFNT
B8: ERBB2_Y1221_A1216D (peptide)
chain: DFDNLYYWDQD
B9: EPOR_Y489_YF (peptide)
chain: PFSNPYENSLI
B10: ERBB2_Y1221_A1216D_YF (peptide)
chain: DFDNLYFWDQD
B11: EPOR_Y489 (peptide)
chain: PYSNPYENSLI
B12: EPHB1_Y740 (peptide)
chain: LAEMNYVHRDL
B13: ERBB4_Y1056_Y1056F (peptide)
chain: SPPPAFTPMSG
B14: ESD_Y258_G257D (peptide)
chain: RLQEDYDHSYY
B15: ERBIN_Y1107_S1112L (peptide)
chain: GDYLSYREFHL
B16: EPHA8_Y616 (peptide)
chain: AEPHTYEEPGR
B17: EPOR_Y485_N487S (peptide)
chain: LSDGPYSSPYE
B18: ERBB3_Y1199 (peptide)
chain: DEEYEYMNRRR
B19: EPHB4_Y574 (peptide)
chain: GREAEYSDKHG
B20: EPHB4_Y590 (peptide)
chain: HGTKVYIDPFT
B21: ERBB2IP_Y977_I979M (peptide)
chain: YGPPQYNMQYS
B22: ERCC4_Y581 (peptide)
chain: RYVVLYDAELT
B23: ERBB2_Y1221 (peptide)
chain: AFDNLYYWDQD
B24: EREG_Y144_R147Q_YF (peptide)
chain: FFCRWYRNQKS
B25: EPM2A_Y304_P301L (peptide)
chain: KRLAVYIDEEA
B26: ERN2_Y860_H858Y_YF (peptide)
chain: NKKFHYRELPV
B27: EPHX1_Y393_T396I (peptide)
chain: ERMKVYVPIGF
B28: ERCC4_Y577 (peptide)
chain: EVEPRYVVLYD
B29: EPOR_Y489_P488S_YF (peptide)
chain: PFSNSYENSLI
B30: ERBB3_Y1132 (peptide)
chain: RGDSAYHSQRH
B31: ERBB3_Y1197 (peptide)
chain: DEDEEYEYMNR
B32: ERBB3_Y1276_G1271S (peptide)
chain: SPGGDYAAMGA
B33: ERBB2IP_Y977_I979M_YF (peptide)
chain: FGPPQYNMQFS
B34: EPHX1_Y283 (peptide)
chain: DVELLYPVKEK
B35: ESD_Y258_G257D_YF (peptide)
chain: RLQEDYDHSFF
B36: ERBB2_Y772 (peptide)
chain: ILDEAYVMAGV
B37: EPOR_Y485_P488S_YF (peptide)
chain: LSDGPYSNSFE

Molecular target: SHP2 C-SH2 domain E139D
Test: enrichment score (SH2-bound / input frequency) (ratio); bacterial display of known human phosphotyrosine sites (pTyr-Var adds point mutants) read by sequencing; higher = stronger binding; tyrosines were phosphorylated by kinases first
Details: peptide library: pTyr-Var
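Also: displayed peptides selected on beads carrying the immobilized SH2 domain, with library peptides lacking any tyrosine serving as negative controls.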

Enrichment score, inactive:
B1 0.959, B2 1.19, B3 0.552, B4 0.706, B5 0.57, B6 0.478, B7 0.904, B8 0.919, B9 1.39, B10 0.91, B11 0.528, B12 0.615, B13 0.666, B14 0.758, B15 1.33, B16 0.441, B17 0.602, B18 0.318, B19 0.452, B20 1.67, B21 0.685, B22 1.74, B23 1, B24 0.218, B25 0.572, B26 1.17, B27 0.943, B28 0.742, B29 1.22, B30 0.545, B31 0.417, B32 0.451, B33 1.16, B34 1.09, B35 0.72, B36 0.681, B37 0.639

Molecular target: SHP2 C-SH2 domain wild-type
Test: as above
Details: peptide library: pTyr-Var

Enrichment score, inactive:
B1 0.894, B2 1.14, B3 0.311, B4 0.755, B5 0.593, B6 0.413, B7 0.542, B8 0.922, B9 1.43, B10 0.841, B11 0.735, B12 0.743, B13 0.483, B14 0.65, B15 1.14, B16 0.532, B17 0.557, B18 0.515, B19 0.565, B20 0.848, B21 0.703, B23 1.23, B24 0.293, B25 0.761, B26 1.11, B27 0.894, B28 1.33, B29 1.8, B30 0.522, B31 0.453, B32 0.437, B33 1.05, B34 0.94, B35 0.708, B36 0.795, B37 0.645

Enrichment score, active:
B22 3.4

Molecular target: SHP2 N-SH2 domain L43F
Test: as above
Details: peptide library: pTyr-Var

Enrichment score, active:
B22 5.51

Enrichment score, inactive:
B1 0.762, B2 0.95, B3 0.446, B4 0.854, B5 0.759, B6 0.331, B7 0.798, B8 0.816, B9 1.55, B10 0.939, B11 0.951, B12 0.561, B13 0.587, B14 0.692, B15 1.54, B16 0.482, B17 0.778, B18 0.459, B19 0.555, B20 1.11, B21 0.734, B23 1.18, B24 0.296, B25 0.706, B26 1.01, B27 0.927, B28 2.08, B29 2.07, B30 0.646, B31 0.364, B32 0.47, B33 1.26, B34 1.15, B35 0.689, B36 0.728, B37 0.677

Molecular target: SHP2 N-SH2 domain T42A
Test: as above
Details: peptide library: pTyr-Var

Enrichment score, active:
B22 8.9, B28 3.84

Enrichment score, inactive:
B1 1.05, B2 0.834, B3 0.635, B4 0.709, B5 0.653, B6 0.383, B7 0.538, B8 0.658, B9 1.27, B10 0.82, B11 0.687, B12 0.745, B13 0.558, B14 0.836, B15 0.955, B16 0.433, B17 0.457, B18 0.592, B19 0.444, B20 2.7, B21 0.573, B23 1.03, B24 0.301, B25 0.683, B26 1.22, B27 2.15, B29 1.24, B30 0.462, B31 0.475, B32 0.453, B33 1.12, B34 0.823, B35 0.62, B36 0.712, B37 0.694

Molecular target: SHP2 N-SH2 domain T52S
Test: as above
Details: peptide library: pTyr-Var

Enrichment score, active:
B22 7.21

Enrichment score, inactive:
B1 0.706, B2 0.947, B3 0.483, B4 0.689, B5 0.636, B6 0.403, B7 0.586, B8 0.835, B9 1.26, B10 0.809, B11 0.75, B12 0.68, B13 0.654, B14 0.649, B15 1.34, B16 0.485, B17 0.6, B18 0.355, B19 0.431, B20 1.31, B21 0.539, B23 1.06, B24 0.23, B25 0.607, B26 1.29, B27 0.921, B28 2.18, B29 1.03, B30 0.483, B31 0.378, B32 0.512, B33 1.07, B34 1.01, B35 0.379, B36 0.687, B37 0.562

Molecular target: SHP2 N-SH2 domain wild-type
Test: as above
Details: peptide library: pTyr-Var

Enrichment score, inactive:
B1 0.767, B2 0.711, B3 0.408, B4 0.575, B5 0.589, B6 0.409, B7 0.819, B8 0.978, B9 1.26, B10 1.39, B11 0.814, B12 0.589, B13 0.594, B14 1.01, B15 0.998, B16 0.51, B17 0.609, B18 0.403, B19 0.4, B20 0.822, B21 0.615, B22 2.59, B23 0.955, B24 0.325, B25 0.691, B26 1.34, B27 0.944, B28 1.16, B29 1.78, B30 0.668, B31 0.657, B32 0.624, B33 0.916, B34 0.695, B35 0.714, B36 0.753, B37 0.854
